According to the supplement of paper PMC12217912:
This is one part of the list. The full chains were built here from the parent and the listed change. Inactive controls read about 0.05.

B1: TEV protease; numbered along this chain (parent)
chain: MGESLFKGPRDYNPISSSICHLTNESDGHTTSLYGIGFGPFIITNKHLFRRNNGTLVVQSLHGVFKVKDTTTLQQHLVDGRDMIIIRMPKDFPPFPQKLKFREPQREERICLVTTNFQTKSMSSMVSDTSCTFPSGDGIFWKHWIQTKDGQCGSPLVSTRDGFIVGIHSASNFTNTNNYFTSVPKNFMELLTNQEAQQWVSGWRLNADSVLWGGHKVFMVKPEEPFQPVKEATQL

Variants of: B1
Experiment: raw area under fraction-flipped curve 0-4 h after induction (AUC4h, not background-subtracted), DNA-recorder readout of cleavage of the substrate (dimensionless); higher = more cleavage of the substrate by the protease variant
Conditions: temperature: 34 °C; time window: 0-4 h after rhamnose induction
Experimental: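 In vivo DNA recorder in E. coli TOP10(DE3) ΔrhaA at 34 °C. Each TEVp single-site mutant (parent TEVp 0) is paired with a single-site variant of the 7-mer TEVs (canonical ENLYFQ|S). The substrate sits between flexible linkers in a Bxb1-sfGFP-TEVs-SsrA fusion, so cleavage stabilises Bxb1 and speeds flipping of a recombination array, read by NGS. The value is the raw area under the fraction-flipped curve over 0-4 h after rhamnose induction (AUC4h), with ≥20 reads per time point. It is not background-subtracted; inactive controls average about 0.047.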
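Further: Bxb1 expression induced with 0.2% (w/v) L-rhamnose at OD600 near 0.5, cultures sampled hourly, flipped fraction per protease–substrate barcode pair counted by paired-end Illumina sequencing.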

| Variant | area with substrate ENLYAQS | area with substrate ENLYCQS | area with substrate ENLYDQS | area with substrate ENLYGQS | area with substrate ENLYPQS | area with substrate ENLYQQS | area with substrate ENLYVQS | area with substrate ENLYWQS | area with substrate ENLYHQS | area with substrate ENLYIQS | area with substrate ENLYKQS | area with substrate ENLYMQS | area with substrate ENLYNQS | area with substrate ENLYRQS | area with substrate ENLYTQS | area with substrate ENLYYQS | area with substrate ENLYEQS | area with substrate ENLYLQS | area with substrate ENLYSQS |
| --- | --- | --- | --- | --- | --- | --- | --- | --- | --- | --- | --- | --- | --- | --- | --- | --- | --- | --- | --- |
| N116R | 0.0613 | 0.075 | 0.0736 | 0.0494 | 0.0648 | 0.0803 | 0.134 | 0.0639 |  |  |  |  |  |  |  |  |  |  |  |
| T129M | 0.0531 | 0.0836 | 0.0439 | 0.0472 |  | 0.0657 |  | 0.0951 | 0.0765 | 0.111 | 0.057 | 0.0581 | 0.0545 | 0.0566 | 0.0894 | 0.0498 |  |  |  |
| T129E | 0.073 |  | 0.0639 |  |  |  |  |  |  | 0.101 | 0.066 | 0.0713 |  |  | 0.0088 |  |  |  |  |
| T129S | 0.0854 |  | 0.0624 | 0.0634 | 0.0749 | 0.0699 | 0.0835 | 0.0838 | 0.0545 | 0.107 | 0.0661 |  | 0.0677 | 0.0673 | 0.0916 | 0.082 | 0.0728 | 0.0748 | 0.0954 |
| T119P | 0.0605 |  | 0.0711 |  | 0.0985 |  |  |  | 0.0674 | 0.132 |  | 0.0932 |  |  | 0.0679 |  | 0.0689 |  |  |
| N186K | 0.0707 |  |  |  | 0.0667 | 0.0605 | 0.0709 | 0.0761 | 0.0659 | 0.13 | 0.068 | 0.074 |  |  |  |  | 0.0757 |  |  |
| S158W | 0.049 | 0.0441 | 0.0483 | 0.0484 | 0.0473 | 0.0437 | 0.0577 | 0.0556 | 0.0574 | 0.0543 | 0.0539 | 0.0608 | 0.0466 | 0.0511 | 0.0572 |  | 0.0502 | 0.0437 | 0.0496 |
| S158M | 0.0537 |  | 0.0599 | 0.0632 | 0.0558 |  | 0.054 | 0.0652 | 0.0526 | 0.0641 | 0.0502 | 0.0473 | 0.0612 | 0.0456 | 0.0554 |  | 0.0451 | 0.054 | 0.0422 |
| T115V | 0.0895 |  | 0.0668 | 0.0568 |  | 0.0636 | 0.11 |  | 0.0782 | 0.139 |  | 0.087 | 0.0612 |  |  | 0.0535 | 0.0804 |  | 0.069 |
| T159R | 0.0689 |  | 0.0613 |  |  | 0.0923 | 0.163 | 0.0952 | 0.0838 | 0.139 |  | 0.0844 |  | 0.0619 |  |  |  |  | 0.0333 |
| G138C | 0.0722 |  |  |  |  |  |  |  | 0.0893 |  | 0.0582 |  | 0.0543 |  |  |  |  |  |  |
| P134S | 0.0794 | 0.0661 |  | 0.0582 | 0.0769 |  |  |  | 0.0663 | 0.1 |  | 0.0698 | 0.0527 |  |  |  | 0.0616 | 0.0764 |  |
| P134I | 0.0699 |  | 0.0575 | 0.0646 | 0.0643 | 0.065 |  | 0.0454 | 0.0499 | 0.111 |  |  | 0.0626 | 0.0638 |  | 0.0594 | 0.0629 | 0.0743 | 0.0594 |
| N178T | 0.0709 | 0.0752 | 0.0675 | 0.055 |  | 0.0591 | 0.0601 |  | 0.0586 | 0.113 | 0.0305 | 0.0546 | 0.0631 | 0.0582 |  | 0.0605 | 0.0359 |  | 0.0516 |
| N178V | 0.0643 |  | 0.0447 |  | 0.0656 | 0.0605 | 0.089 |  |  | 0.0918 | 0.0951 |  |  |  | 0.0729 |  | 0.0675 |  |  |
| S154Q | 0.0756 |  | 0.0669 |  |  |  | 0.157 | 0.0978 |  |  | 0.0532 | 0.0777 | 0.0683 |  | 0.099 |  |  | 0.0582 | 0.101 |
| F133T | 0.0831 |  |  | 0.0838 | 0.0677 | 0.0623 | 0.129 | 0.0689 |  | 0.131 | 0.0564 |  | 0.055 | 0.0694 |  |  | 0.0636 |  | 0.0777 |
| N175V | 0.064 |  | 0.0689 | 0.0631 | 0.0568 | 0.0611 | 0.0594 | 0.0547 |  | 0.042 | 0.0616 | 0.0479 | 0.062 | 0.0536 | 0.0651 | 0.072 | 0.0723 |  |  |
| S135Q | 0.0679 | 0.0721 | 0.0598 |  | 0.0516 |  | 0.0708 |  | 0.0587 | 0.0627 | 0.0632 | 0.0688 | 0.0629 | 0.0592 |  | 0.0662 | 0.0662 |  |  |
| Y179I | 0.0727 | 0.0631 | 0.0621 |  | 0.0518 | 0.0551 |  |  | 0.0581 | 0.0669 | 0.0277 |  |  | 0.0749 |  | 0.069 | 0.0769 |  |  |
| Y179W | 0.074 |  | 0.0581 |  | 0.0642 |  | 0.0648 | 0.0569 |  |  |  | 0.0555 | 0.0393 |  |  |  | 0.0548 |  | 0.062 |
| V157I | 0.085 |  | 0.0738 | 0.063 | 0.0763 | 0.0602 | 0.107 |  | 0.0665 | 0.124 | 0.0683 |  | 0.0583 | 0.0647 |  | 0.0631 | 0.0951 | 0.058 | 0.063 |
| F140D | 0.0648 |  |  |  | 0.0675 |  |  | 0.0622 |  | 0.0617 | 0.0628 | 0.0535 |  |  |  |  | 0.0556 |  |  |
| F140H | 0.0672 |  | 0.0649 | 0.0427 | 0.0582 |  | 0.0726 |  | 0.0537 | 0.0786 | 0.0809 |  | 0.0617 |  |  | 0.0691 | 0.054 | 0.0712 |  |
| S171P | 0.0472 |  | 0.0617 | 0.058 | 0.0433 | 0.0622 | 0.0609 | 0.0459 | 0.062 | 0.0572 | 0.0659 | 0.0489 | 0.0623 | 0.0501 |  | 0.0572 |  | 0.0524 | 0.0623 |
| F117D | 0.0839 |  |  |  | 0.0657 |  | 0.106 | 0.0785 | 0.0712 | 0.0942 | 0.0674 | 0.106 | 0.0762 |  | 0.0753 |  |  |  |  |
| M122C | 0.0593 |  | 0.0616 | 0.0682 | 0.0694 | 0.0592 | 0.115 | 0.0824 | 0.0734 | 0.141 | 0.0547 | 0.096 | 0.051 | 0.064 |  |  | 0.0708 |  |  |
| M122D | 0.0674 | 0.119 | 0.0824 | 0.0682 | 0.0783 |  | 0.108 | 0.0666 | 0.0595 | 0.137 |  | 0.0702 | 0.0813 | 0.0658 | 0.0959 |  | 0.0745 | 0.0738 | 0.105 |
| I145P | 0.0517 |  | 0.0541 |  |  | 0.0449 |  |  |  |  | 0.0628 | 0.0579 |  |  |  |  |  |  |  |
